In the supplement of paper PMC4166925:
± gives the standard deviation of the averaged measurements. In all, about 33,000 sequences were measured (“E-score (dimensionless, -0.5 to 0.5)”: median about -0.046, highest 2% from about 0.36 on). The list shows a part of the results.

The sequences below were run on T1, SpTbr T-box DNA-binding domain (GST fusion) (assay: PBM E-score of 8-mer (E-score (dimensionless, -0.5 to 0.5)); Tbr is Tbrain of the sea star Patiria miniata (Pm) or the sea urchin Strongylocentrotus purpuratus (Sp); higher = stronger binding preference; most listed sequences are background and not binding sites). Conditions: the construct has about 5 more residues each side.
T1 sequence: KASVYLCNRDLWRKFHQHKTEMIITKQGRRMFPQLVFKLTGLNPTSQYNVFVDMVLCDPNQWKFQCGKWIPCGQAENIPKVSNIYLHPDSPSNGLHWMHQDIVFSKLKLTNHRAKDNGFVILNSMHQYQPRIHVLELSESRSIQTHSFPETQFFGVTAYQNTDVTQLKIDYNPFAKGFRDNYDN
Outline: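 GST-fused Tbr T-box DNA-binding domains (the whole T-box plus about five flanking residues) were expressed in BL21 E. coli at 20 °C and purified by glutathione affinity chromatography. Universal Agilent oligonucleotide arrays were made double-stranded by primer extension, incubated with 200 nM protein in PBS (pH 7.5), then scanned and quantified. Every ungapped 8-mer was scored from probe intensities. The Universal PBM Analysis Suite gave each word an enrichment E-score, averaged over duplicate arrays.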

Sequence	PBM E-score of 8-mer
CCCAGAGA	-0.125 ± 0.058
AATATACC	0.0406 ± 0.0038
ACCATACC	-0.262 ± 0.027
ACTCCTAC	-0.128 ± 0.01
AGACTCGG	-0.23 ± 0.019
CTGCCCAC	0.123 ± 0.0056
GCATAAGC	-0.0661 ± 0.023
CAACATTA	-0.127 ± 0.022
ATACCAAG	-0.00145 ± 0.017
ACGTCGAC	0.0807 ± 0.016
ACCACTCT	-0.04686 ± 0.00032
TGCGAGAA	0.36401 ± 0.00027
CCTACTAA	-0.0157 ± 0.06
ACTTATCG	0.0951 ± 0.025
CCGGTTCC	-0.27 ± 0.0077
CGAGCCCG	-0.0449 ± 0.0048
CCGTGGAA	0.024 ± 0.04
CCTGGCAG	-0.0627 ± 0.0057
CCCTAACC	-0.113 ± 0.029
TATGCTGA	-0.169 ± 0.036
ACTGCAAA	0.0982 ± 0.0092
CATAAGAG	-0.286 ± 0.003
AGAAGCTC	-0.0389 ± 0.0014
AACGGTGG	-0.1376 ± 0.00095
AGAGAGGG	-0.157 ± 0.078

Sequence	PBM E-score of 8-mer
CATGCAGC	-0.0608 ± 0.074
GGAGTGCC	0.0103 ± 0.042
AAAGCTGC	0.0991 ± 0.073
ACCGGGCA	-0.248 ± 0.025
ATGCCTCG	-0.0593 ± 0.14
ATCTTCCC	-0.105 ± 0.012
CCAAGATC	-0.0932 ± 0.01
GTCAATCA	-0.00127 ± 0.013
AAATGTCT	-0.1219 ± 0.00025
AATGAGCC	-0.11 ± 0.0038
GCCCGACA	0.229 ± 0.022
CGCGTCCG	0.0707 ± 0.085
ACGATGAC	0.105 ± 0.041
AACCGATG	-0.0787 ± 0.073
ACTGCACG	-0.0519 ± 0.037
CGCTCGTC	-0.222 ± 0.041
ACGTTTCC	-0.0163 ± 0.073
CGTCCGCA	0.139 ± 0.042
GATGATTA	0.153 ± 0.019
CGCTCCAA	0.01 ± 0.055
GTTCTAAA	-0.334 ± 0.035
CGGAGTTA	-0.132 ± 0.0015
TCGAGGAA	-0.188 ± 0.093
CCCCGAGA	-0.156 ± 0.034
AACACTTG	0.3953 ± 0.0019

Sequence	PBM E-score of 8-mer
GCCTACAA	0.0391 ± 0.063
CACACTTA	0.447 ± 0.0064
GAGGAGTA	0.16 ± 0.02
GCAACGTA	-0.134 ± 0.068
AGTGGCTG	-0.0229 ± 0.054
AGGCCTGA	-0.2517 ± 0.0013
ATCGAATG	-0.134 ± 0.046
CTATGTAA	-0.0688 ± 0.047
CGATCCAA	0.0542 ± 0.051
AGCACTAT	0.108 ± 0.084
CTAAAAGA	-0.201 ± 0.022
AATAACGC	0.052 ± 0.13
TATATTGA	-0.0827 ± 0.014
ACAACATC	0.146 ± 0.015
ATCCGATC	-0.123 ± 0.052
GCTTATCA	0.0701 ± 0.045
AGTCTATC	-0.154 ± 0.051
CCCTTAAG	0.0237 ± 0.053
GGTGAACC	0.0507 ± 0.064
CTCGTGGC	-0.114 ± 0.04
CCCCGATA	-0.122 ± 0.016
AACGGCCT	-0.096 ± 0.055
CCTAAGTA	-0.121 ± 0.035
AGTTAGAA	-0.032 ± 0.097
CCGGTGTA	0.115 ± 0.037

Sequence	PBM E-score of 8-mer
ACTCGTAC	-0.0977 ± 0.07
GGCTAACA	0.235 ± 0.024
ATACCGAC	0.00424 ± 0.047
CCAACTGG	-0.139 ± 0.044
ATTAACTA	-0.0755 ± 0.079
ATATACCA	0.00106 ± 0.052
ATTAATGG	-0.0591 ± 0.094
GCTGAGTA	-0.228 ± 0.011
TAGGTGGA	0.206 ± 0.028
CCATATAG	-0.322 ± 0.076
GGATCATA	-0.163 ± 0.096
AAATATAC	-0.251 ± 0.023
CGACCAAA	-0.195 ± 0.011
CGTATGGA	-0.161 ± 0.0036
AACTAGTT	0.0697 ± 0.073
GTTCTCCA	-0.198 ± 0.076
CAAACGCC	-0.0351 ± 0.013
CAGACGAC	-0.0662 ± 0.051
ACGTTAGA	-0.0851 ± 0.017
AAGTCACA	0.265 ± 0.015
CGCCGTTA	0.0601 ± 0.004
GGTTCCCA	0.0138 ± 0.028
GGAATGAC	-0.0205 ± 0.025
ATAACCAC	-0.138 ± 0.015
GTCACGAC	0.188 ± 0.034

Sequence	PBM E-score of 8-mer
CCCAACAG	-0.00133 ± 0.037
AAATCAGT	-0.139 ± 0.019
ATTGGAGC	-0.119 ± 0.03
GAACAGGA	-0.0932 ± 0.027
AGTGATAC	0.174 ± 0.015
ATGTCTAA	-0.129 ± 0.078
CCTCCACA	0.176 ± 0.039
CAAGTTGC	0.2707 ± 0.0024
GTGCCTTA	-0.141 ± 0.041
AGTACCTC	-0.0654 ± 0.08
GTTTAACA	0.259 ± 0.059
GGCTTCCC	-0.0838 ± 0.065
AGGTCGAT	0.058 ± 0.02
GATACGAC	0.135 ± 0.0063
ACTCTTAG	-0.106 ± 0.0089
GATCTCCA	-0.0351 ± 0.043
ATCCGCCA	-0.155 ± 0.022
GATATCGA	0.0185 ± 0.025
GAACCAAC	0.0827 ± 0.051
ACGTTCAT	-0.101 ± 0.02
AAGAATCT	-0.109 ± 0.042
GACACCCA	0.374 ± 0.032
GGGCCAGA	-0.323 ± 0.047
AAACCGTC	0.0955 ± 0.014
ACGTAAAC	0.0232 ± 0.047

Sequence	PBM E-score of 8-mer
TACTTCGA	-0.0694 ± 0.013
AATGCTAT	-0.0321 ± 0.071
GGGCTAGA	-0.17 ± 0.012
ACTCCTCC	0.116 ± 0.0039
TCGAAAAA	-0.0371 ± 0.08
AGGCATGA	-0.156 ± 0.016
AAGCCTCA	-0.084 ± 0.059
TCTCCTAA	-0.171 ± 0.012
GGTTCCAA	-0.206 ± 0.069
ACAACTAG	-0.0892 ± 0.11
AACAGCGC	0.143 ± 0.006
GGGATAAC	0.0528 ± 0.052
AATAGGCT	-0.176 ± 0.032
AAGACCCG	0.016 ± 0.079
CAAATGCC	-0.0761 ± 0.015
CCGAGCGA	-0.173 ± 0.081
CAGCGCCC	0.0237 ± 0.035
CTAATTGC	-0.123 ± 0.028
GTCGGCAA	0.0712 ± 0.012
CCTGTTGC	0.0625 ± 0.07
GGGTCTCA	0.08 ± 0.017
AGCTGCAA	0.123 ± 0.033
ACCGACTA	-0.18161 ± 9.9e-05
CGATTTGA	0.0256 ± 0.01
GACCCCGA	-0.173 ± 0.09

Sequence	PBM E-score of 8-mer
GGGTGGAC	-0.0836 ± 0.044
GAACTCCC	-0.0829 ± 0.0089
GGGCCTCA	-0.104 ± 0.044
GGAGCTTA	-0.192 ± 0.031
ACTTTATC	0.0371 ± 0.019
AATAGGTC	-0.154 ± 0.017
ACCGATTA	-0.00785 ± 0.032
CCTCCGAA	-0.0722 ± 0.014
GAACAGGC	-0.114 ± 0.02
AATAGCGA	0.258 ± 0.026
AAACCACT	-0.258 ± 0.016
GCCCGGAC	-0.183 ± 0.039
CTGATTGA	-0.0408 ± 0.029
ACTCGCTA	0.255 ± 0.025
AATACCTG	-0.0292 ± 0.072
GCACTTCC	0.326 ± 0.017
ATTCCCAC	0.225 ± 0.019
AATGAGGC	-0.187 ± 0.087
GCAATCAC	0.176 ± 0.029
TAGGCAAA	-0.0674 ± 0.095
AAAGGCGG	0.0871 ± 0.015
ACATTTAA	-0.0206 ± 0.06
ATGTACGC	-0.0378 ± 0.0063
GCCCGCAC	0.0289 ± 0.04
ACGATATG	0.0283 ± 0.016

Sequence	PBM E-score of 8-mer
GCACGGTA	-0.0476 ± 0.042
CTGACTCC	-0.113 ± 0.088
CTCTTAAC	-0.147 ± 0.018
ACGAGAAC	0.186 ± 0.0072
TATCAAGA	-0.227 ± 0.059
AACGCTTG	0.182 ± 0.0086
ACCTGATC	0.0465 ± 0.058
TGTATAAA	-0.175 ± 0.0027
AAACCCTC	-0.0489 ± 0.035
ACAGAACC	-0.0524 ± 0.08
TACTATAA	-0.105 ± 0.12
CAGCAACC	-0.109 ± 0.025
AACGATGA	-0.169 ± 0.036
GTTTACGA	0.0241 ± 0.021
ACCCATAT	-0.0302 ± 0.0029
ACTCGGAG	0.02 ± 0.05
CAGGCGCG	0.323 ± 0.0063
CCGCTCCG	-0.278 ± 0.084
CGAGAGCG	0.167 ± 0.046
AGTTCCTA	-0.0351 ± 0.048
CTCCCAGA	-0.0507 ± 0.038
GCCATGGC	-0.331 ± 0.018
ACAGAAGC	-0.112 ± 0.011
AGCACCCA	0.15 ± 0.073
ATACGAAC	-0.1649 ± 0.00096

Sequence	PBM E-score of 8-mer
GAGGGGGA	-0.18 ± 0.058
ACTGATCG	-0.033 ± 0.09
GCCTGGGA	-0.203 ± 0.039
AAACTACA	0.014 ± 0.14
CATCGAAC	-0.0765 ± 0.093
ACGGCAGA	0.00639 ± 0.087
ATCATGTG	0.0234 ± 0.06
AACTTAGT	-0.0372 ± 0.035
ATAATGCG	0.0553 ± 0.067
GGCTCCCC	-0.219 ± 0.0066
CGGGATAC	0.0581 ± 0.057
AATGAGAA	-0.217 ± 0.014
CCTGTACC	-0.281 ± 0.019
CCGACAAC	0.159 ± 0.048
ACCCACCT	0.119 ± 0.0025
AGTCGAAT	-0.204 ± 0.031
AGGTGGGC	-0.0803 ± 0.021
AACCGTTC	0.13 ± 0.033
CCTGTCAC	0.3163 ± 0.0011
